These results are taken from the RNAGym collection of RNA variant scans (doi:10.1093/nar/gkz1192).

First the molecules themselves.
B1: CPEB3 Ribozyme (parent)
chain: UAACAGGGGGCCACAGCAGAAGCGUUCACGUCGCAGCCCCUGUCAGAUUCUGGUGAAUCUGCGAAUUCUGCUGUAUAUCUC

The source gives no read counts; variants with many changes may rest on few reads.

Variants of B1 are the subject of the data set. Nature of the data set: self-cleavage, relative activity (ratio to wild type); higher = more cleavage; in vitro, sequencing. In short, it runs like this: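 For each CPEB3 ribozyme variant, relative activity is its cleaved/total read fraction divided by the unmutated ribozyme's. Barcoded error-prone PCR libraries were transcribed by T7 RNA polymerase (5 hours, 37°C) and held in DNase I for 15 min before an EDTA stop, with cleavage occurring throughout. Template-switching reverse transcription and Illumina sequencing were used to read the RNAs. A 5-read minimum applied, and results are the mean of three batches.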
With U1C A15G A57G, the self-cleavage is 0.89.
Consider U1C A35G U58C A64G, for which the self-cleavage is 1.02.
Regarding U1A G6C C32U, the self-cleavage was 0.42.
In the case of U1C A2G A15C C44U U66A, the self-cleavage is 0.03.
Turning to U1C A28G U31C C32U G33A U72A, the self-cleavage was determined as 0.08.
With U1C A28U G33C A75G U76C, the self-cleavage is 0.22.
With U1C A18C A47G A57G U69C U74C, the self-cleavage worked out at 0.09.
U1C A3G A15U U26C U48C U66A: the self-cleavage was 0.09.
Take U1C A2G G9A A18G G22A U26C: the self-cleavage worked out at 0.05.
For U1C A20G U31C A45U A56G, the self-cleavage came to 0.09.
Consider U1C A21G U43C C79U, for which the self-cleavage was found to be 0.55.
As for U1C A2G A3G A15G, the self-cleavage was found to be 0.96.
Regarding U1C A3U A20G C79U, the self-cleavage came to 1.13.
For the variant U1C A28U U49C, the self-cleavage was found to be 0.32.
On to U1A U26A G55A U66C U72A A75U, for which the self-cleavage is 0.11.
Regarding U1A U25C C29A U31C U49C U58C U72C, the self-cleavage was found to be 0.09.
To U1A U25C U74C belongs 0.87; to U1A U26C A35U U54A U69C, 0.21; to U1A U54A U76A, 1.14.
Take U1C A18U U26C C71G: the self-cleavage was 0.07.
In the case of U1C A2G C23G, the self-cleavage was found to be 0.45.
To U1C A20G U72C belongs 0.43.
For U1C A2U U31A U41A G70C the value was 0.07; for U1C A13U U60C U69C, 0.35.
In the case of U1C A3G U51C, the self-cleavage is 0.87.
In the case of U1C A57G A75U, the self-cleavage was found to be 0.74.
On to U1C A15C U25C U41G, for which the self-cleavage amounted to 0.03.
Consider U1A G7C A18U A20U U41A, for which the self-cleavage turned out to be 0.21.
With U1C A35U C62A, the self-cleavage was 0.28.
As to U1C A3G G8A, the self-cleavage was 0.54.
U1C A45U U66A: the self-cleavage is 0.08.
To U1C A5U G19U C71A belongs 0.06; to U1C A5G C39U U67C U69C, 0.06; to U1A U54C U72C, 0.96.
For the variant U1C A2U A65G U80C, the self-cleavage was found to be 0.43.
As for U1C A13C U80C, the self-cleavage was found to be 0.82.
Turning to U1A C32U U54C A56C, the self-cleavage stood at 0.06.
With U1C A3G A56U, the self-cleavage turned out to be 0.63.
With U1A G6U A20G U31A U43C U54C U72C, the self-cleavage was found to be 0.18.
Turning to U1C A18G U26C U31A A47G U66A U67C, the self-cleavage turned out to be 0.04.
In the case of U1A G9A A18G U43C, the self-cleavage was found to be 0.07.
Turning to U1C A18U A65G U76A, the self-cleavage came out at 0.32.
To U1A G10A C39G belongs 0.1; to U1A U43A A45G A56U U60A U67A U74C, 0.12; to U1A G33A G42A A57G, 0.13.
On to U1C A28G A77C, for which the self-cleavage came to 0.81.
As for U1C A18G C27G U54C A56U, the self-cleavage turned out to be 0.03.
In the case of U1C A20G U25C A35G U43A, the self-cleavage is 0.18.
With U1C A2G A21U A64U A65U, the self-cleavage came out at 0.05.
As for U1C A15G U41A U66G, the self-cleavage was 0.21.
To U1C A21G U25C A45G belongs 0.7; to U1C A18U U58C, 0.29.
As for U1A U49C U54C A75G, the self-cleavage stood at 0.28.
In the case of U1A G9C A15G A35U U43A, the self-cleavage was determined as 0.37.
In the case of U1C A20U U67A, the self-cleavage amounted to 0.68.
For the variant U1A C39A A45U U49A, the self-cleavage turned out to be 0.16.
Turning to U1C A3G U43C, the self-cleavage was determined as 0.66.
To U1A U43C U69C U78A belongs 0.17; to U1C A2C U49C A57G U80C, 0.67; to U1C A15G U72C, 0.99.
With U1C A2G A13U U25C U41C U78C, the self-cleavage came out at 0.4.
Turning to U1C A18C A35G U67C U72C U74A, the self-cleavage stood at 0.28.
As to U1C A3U C4A C23A U25C, the self-cleavage stood at 0.07.
For U1C A2U U76A the value was 0.94; for U1A U31G U72C, 0.42.
In the case of U1C A3G G9U A35U C59U U69G, the self-cleavage was determined as 0.16.
As to U1A U26C U43C, the self-cleavage stood at 0.69.
As to U1C A35G U43C A65G U72C, the self-cleavage is 0.64.
Turning to U1A C44U A56G C71U, the self-cleavage came to 0.07.
Turning to U1C A15G C23U G42C A57U, the self-cleavage amounted to 0.04.
On to U1C A18G U43C G70C U80C, for which the self-cleavage came out at 0.08.
For U1C A57G C68U U72A, the self-cleavage was found to be 0.15.
To U1C A2U U67C belongs 0.19; to U1C A5G U66A, 0.1; to U1A G6U A20G G63C A64G, 0.35.
On to U1C A3G C11G A18G, for which the self-cleavage amounted to 0.63.
For U1C A18G U25C the value was 0.41; for U1A G8A C11G U25C U74C A77G, 0.04.
With U1A C32U U54A, the self-cleavage came out at 0.3.
Regarding U1A U31C U54G, the self-cleavage was determined as 0.8.
To U1C A5U G19U belongs 0.12.
To U1C A5U U41C A64G belongs 0.46; to U1C A28G A65U, 0.33; to U1C A18G C50A, 0.3.
U1A G33U A35G U51A: the self-cleavage came out at 0.22.
For U1C A20U A56G U67A U72C, the self-cleavage is 1.06.
To U1A U41C U48C A56G U60A belongs 0.19; to U1A G55C A57U U69A A75G, 0.23; to U1A U54A G73A U80A, 1.27.
U1C A47U U51A U69A: the self-cleavage came out at 0.05.
Turning to U1A G10A C11U U43G A47U U74C A75C, the self-cleavage worked out at 0.22.
Consider U1C A3C U31C A56U U58C, for which the self-cleavage stood at 0.4.
On to U1C A56U U66C, for which the self-cleavage stood at 0.25.
Turning to U1C A3G U51A A57G A65G, the self-cleavage stood at 0.14.
To U1C A18U U60A belongs 0.25; to U1A U25G C27U, 0.31; to U1A G30A C40A U41A, 0.1.
For U1C A2G A15G U26C A56G the value was 0.22.
Consider U1C A28U G53A U60C U67G U78A, for which the self-cleavage worked out at 0.12.
Take U1A G33U U67C: the self-cleavage stood at 0.15.
Take U1C A2C C29A U41C G53A: the self-cleavage was determined as 0.51.
As for U1C A18U A21G C32G A47U U69A, the self-cleavage came to 0.15.
Turning to U1A U41C U43A U51A, the self-cleavage was 0.54.
With U1A G36C C62G A65C U76C C79U, the self-cleavage worked out at 0.12.
For the variant U1A U49A U78G, the self-cleavage stood at 0.57.
As to U1C A28G G52A A56C U67C A75U U78C, the self-cleavage is 0.09.
As for U1A U25A U58A U80C, the self-cleavage worked out at 0.11.
With U1A C32A C40U C44G U49A U72G, the self-cleavage was 0.05.
To U1C A28G C50A U51C A57G belongs 0.26; to U1C A21G U43C A64G A65G, 0.51.
As to U1C A28C U41C A45G, the self-cleavage came to 0.38.
As to U1C A18C U26A A28G U58C, the self-cleavage is 0.23.
As to U1C A15C A18U A21C C40U A56G, the self-cleavage turned out to be 0.07.
Consider U1C A2U C38A, for which the self-cleavage is 0.41.
Take U1C A5G C62U: the self-cleavage worked out at 0.34.
On to U1C A3G U76A, for which the self-cleavage turned out to be 0.96.
Consider U1A G36A U41A A45U, for which the self-cleavage was found to be 0.1.
U1C A13G A64G: the self-cleavage worked out at 0.6.
Regarding U1A G52A U66A, the self-cleavage was 0.43.
To U1C A5G A28U C32U U69C U74C belongs 0.08.
To U1C A5U A35G C37U U43C U69C belongs 0.52; to U1C A15G U25C G46A U49C U66C U78C, 0.04.
Consider U1C A13C A35U, for which the self-cleavage was 0.27.
As for U1C A28G A56C U67C U78C, the self-cleavage turned out to be 0.18.
For U1C A15G A21U U80A, the self-cleavage worked out at 0.46.
Consider U1C A2G G9A U54C U72A, for which the self-cleavage is 0.05.
Take U1C A2U U25C A28U G70U: the self-cleavage amounted to 0.07.
For U1A C38G C59A A77U the value was 0.13.
Consider U1A U25C G30A U31C A45U A56G A75G, for which the self-cleavage was 0.1.
Consider U1C A5U C39U A47U U54C A56C A77G, for which the self-cleavage was determined as 0.1.
For U1C A2G G9U U49C U74C, the self-cleavage was 0.06.
Regarding U1C A18U U25C U43C U54C U76C, the self-cleavage was 0.22.
U1C A2G A5U C11U A28G: the self-cleavage amounted to 0.21.
For U1C A3G A21G A47G A57G the value was 0.35; for U1A G8U A21G U31C U43G A45G U66C, 0.03; for U1C A13U A15G A18U C39G U69A U72A, 0.05.
With U1C A5U A20G U43A U51C U67C, the self-cleavage was 1.16.
For U1C A20U G53A U54C, the self-cleavage was found to be 0.13.
To U1C A35U U43A U54C U60A belongs 0.2; to U1A C29U A47U, 0.25; to U1C A45U U48C G63A, 0.07.
As to U1C A5C A20G, the self-cleavage worked out at 0.67.
As for U1C A3G G6A U26C A28G, the self-cleavage came out at 0.08.
Regarding U1C A13C A20G U54C, the self-cleavage was determined as 0.34.
U1C A18G A28G U48C U74C U78C: the self-cleavage is 0.04.
To U1C A2U A45U U72C U80C belongs 0.36; to U1C A13G U26C, 0.15.
To U1C A56U U67C belongs 0.18.
U1C A13U A18G G22A A47G: the self-cleavage was found to be 0.42.
For U1C A20G U43A U80C the value was 1.06.
As to U1C A13U A57G, the self-cleavage worked out at 0.76.
Take U1C A2U A3G A57G C62G A65U: the self-cleavage turned out to be 0.4.
Take U1C A18C U78A: the self-cleavage was 0.12.
As to U1C A18U U25C C62U U74C, the self-cleavage stood at 0.06.
To U1C A18G C32A C37A A45G U69A belongs 0.15; to U1C A13G A15C, 0.6.
Turning to U1A G19A U43A, the self-cleavage stood at 0.24.
Regarding U1C A57G U69A, the self-cleavage turned out to be 0.56.
For U1C A5U A35U, the self-cleavage came out at 0.67.
Take U1C A15G U25C: the self-cleavage was found to be 0.35.
As to U1C A2C A3G A45U U74C, the self-cleavage was 0.72.
To U1C A35G U66C U78C C79A belongs 1.24; to U1C A47C A64G, 0.4; to U1C A3G U25C A35G U43G, 0.19.
For U1C A35U U41C the value was 0.48; for U1C A18G U54A, 0.55.
To U1C A2U A15U U43C U67C U72C belongs 0.12.
